Like-named read-outs stand apart in the source and are kept apart here. These are yes or no findings as the source states them, for the method shown. For part of these data: In cells and extracts the contact can be indirect. Some binding calls cover weakened binding; strength is not graded here. Tags and fused reporters may be left off the sequences shown. Each block holds one molecule with its values, some of them ahead of it.
Columns and labels:
[1] = biological target: T1, His-tagged PfYdj1 (recombinant, purified) (Plasmodium falciparum 3D7) (UniProt Q8IL88); test: pull-down; reverse co-purification: purified His-tagged PfYdj1 or Pfydj1^D57N immobilised on Ni-NTA beads, incubated with P. falciparum trophozoite lysate; western blot; only the target purified
T1 sequence: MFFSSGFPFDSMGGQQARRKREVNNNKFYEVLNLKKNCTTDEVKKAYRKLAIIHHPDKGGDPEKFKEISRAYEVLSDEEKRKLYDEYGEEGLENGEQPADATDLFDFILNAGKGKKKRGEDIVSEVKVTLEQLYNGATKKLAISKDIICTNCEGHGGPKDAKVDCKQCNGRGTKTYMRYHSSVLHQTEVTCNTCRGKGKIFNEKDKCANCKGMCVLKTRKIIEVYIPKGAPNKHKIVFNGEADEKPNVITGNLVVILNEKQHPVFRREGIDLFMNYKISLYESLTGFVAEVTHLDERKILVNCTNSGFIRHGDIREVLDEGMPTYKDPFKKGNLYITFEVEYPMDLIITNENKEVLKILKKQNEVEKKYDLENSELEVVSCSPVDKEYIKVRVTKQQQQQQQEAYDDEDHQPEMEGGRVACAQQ

Amino acid sequences for entries named in this document (tags omitted).
UniProt Q8IB24: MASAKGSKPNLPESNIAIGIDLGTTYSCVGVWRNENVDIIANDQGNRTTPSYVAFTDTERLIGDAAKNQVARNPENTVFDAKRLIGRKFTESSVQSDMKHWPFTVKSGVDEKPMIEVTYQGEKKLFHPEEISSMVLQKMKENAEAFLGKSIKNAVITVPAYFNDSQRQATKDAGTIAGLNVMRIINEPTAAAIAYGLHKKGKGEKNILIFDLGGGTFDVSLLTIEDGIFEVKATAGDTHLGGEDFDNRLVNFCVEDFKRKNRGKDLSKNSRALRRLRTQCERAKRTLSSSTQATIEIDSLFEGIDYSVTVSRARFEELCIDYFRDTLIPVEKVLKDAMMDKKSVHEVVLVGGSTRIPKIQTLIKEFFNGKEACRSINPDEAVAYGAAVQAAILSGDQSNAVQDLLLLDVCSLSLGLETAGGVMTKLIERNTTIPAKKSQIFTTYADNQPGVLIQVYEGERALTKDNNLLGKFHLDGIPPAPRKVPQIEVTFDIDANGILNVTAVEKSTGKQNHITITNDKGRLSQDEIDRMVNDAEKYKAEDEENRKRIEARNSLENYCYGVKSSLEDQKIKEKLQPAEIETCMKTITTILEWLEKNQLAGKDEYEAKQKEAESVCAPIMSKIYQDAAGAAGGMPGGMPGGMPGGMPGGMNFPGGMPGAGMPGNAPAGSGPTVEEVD

[2] = biological target: T2, His-tagged full length PfR2 (recombinant, purified) (Plasmodium falciparum 3D7) (UniProt P50650); test: pull-down; purified His-tagged PfR2 (10 µg) immobilised on Ni-NTA agarose beads, incubated with 200 µg P. falciparum trophozoite lysate (untreated parasites, or parasites grown with 50 µM 116-9e for 24 h) in 20 mM phosphate pH 7.5, 300 mM NaCl, 0.5% NP-40, 4°C overnight; western blot; only the target purified
T2 sequence: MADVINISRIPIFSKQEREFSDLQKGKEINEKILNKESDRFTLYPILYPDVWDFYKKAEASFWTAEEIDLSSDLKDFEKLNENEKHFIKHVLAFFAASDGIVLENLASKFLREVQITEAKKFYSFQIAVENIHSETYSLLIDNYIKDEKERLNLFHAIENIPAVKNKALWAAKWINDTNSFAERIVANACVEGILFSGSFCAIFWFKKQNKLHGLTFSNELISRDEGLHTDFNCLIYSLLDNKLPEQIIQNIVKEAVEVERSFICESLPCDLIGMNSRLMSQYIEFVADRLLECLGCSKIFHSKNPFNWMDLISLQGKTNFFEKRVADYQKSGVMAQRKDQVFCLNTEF

[3] = biological target: T3, PfYdj1 fused to the GAL4 DNA-binding domain (bait, pGBDUC1/PfYdj1) (Plasmodium falciparum 3D7) (UniProt Q8IL88); test: condition: only with 116-9e in the triple drop out plates; two-hybrid; as a1, but on triple drop out plates containing 116-9e
T3 sequence: T1 sequence

[4] = biological target: T3, PfYdj1 fused to the GAL4 DNA-binding domain (bait, pGBDUC1/PfYdj1) (Plasmodium falciparum 3D7); test: two-hybrid; bait as GAL4 DNA-binding domain fusion (pGBDUC1), prey as GAL4 activation domain fusion (pGADC1), S. cerevisiae PJ69-4A, HIS3 reporter, growth on SC-Leu-Ura-His plates, 30°C, 4 days
[5] = biological target: T4, PfSis1 fused to the GAL4 DNA-binding domain (bait, pGBDUC1/PfSis1) (Plasmodium falciparum 3D7) (UniProt O96212); test: as above
T4 sequence: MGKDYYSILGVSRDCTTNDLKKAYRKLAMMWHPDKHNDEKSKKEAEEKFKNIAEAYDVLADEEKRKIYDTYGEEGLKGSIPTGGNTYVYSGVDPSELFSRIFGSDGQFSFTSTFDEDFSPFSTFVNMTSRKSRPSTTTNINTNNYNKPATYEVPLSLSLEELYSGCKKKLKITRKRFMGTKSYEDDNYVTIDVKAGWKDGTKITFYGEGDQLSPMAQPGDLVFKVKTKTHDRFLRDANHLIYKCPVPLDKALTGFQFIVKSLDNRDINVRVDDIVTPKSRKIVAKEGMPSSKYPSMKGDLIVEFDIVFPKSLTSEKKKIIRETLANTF

[6] = biological target: T3, PfYdj1 fused to the GAL4 DNA-binding domain (bait, pGBDUC1/PfYdj1) (Plasmodium falciparum 3D7); test: as above; remark: listed apart in the source
[7] = biological target: T1, His-tagged PfYdj1 (recombinant, purified) (Plasmodium falciparum 3D7); test: pull-down; reverse co-purification: purified His-tagged PfYdj1 or Pfydj1^D57N immobilised on Ni-NTA beads, incubated with P. falciparum trophozoite lysate; western blot; only the target purified; remark: listed apart in the source

binding [1]: binds | binding [2]: binds
Molecule: PfHsp70-1 of the parasite (endogenous) (from UniProt Q8IB24 1-677)

binding [2]: binds
B4: PfYdj1 of the parasite (endogenous) (protein, UniProt Q8IL88 1-424)
chain: T1 sequence

The next lines start with the molecule.

Molecule: PfHsp70-1 fused to the GAL4 activation domain (prey, pGADC1/PfHsp70) (from UniProt Q8IB24 1-677)
binding [3]: no binding | binding [4]: binds

B1: PfR2 fused to the GAL4 activation domain (prey, pGADC1/PfR2) (protein, UniProt P50650 1-349)
chain: T2 sequence
binding [5]: no binding | binding [6]: binds

B2: PfR2 of the parasite (endogenous) (protein, UniProt P50650 1-349)
chain: T2 sequence
binding [7]: binds

B3: PfSis1 of the parasite (endogenous) (protein, UniProt O96212 1-328)
chain: T4 sequence
binding [2]: no binding
